Paper PMC3740237
These are yes or no findings as the source states them, for the method shown. Some binding calls cover weakened binding; strength is not graded here. Sequences can lack the tags named with a protein.

T1: JAM-C extracellular region fused to EGFP, GPI-anchored on CHO cells (UniProt Q9BX67)
T1 sequence (chain, GPI anchor at the C-terminus (GPI signal of TRAIL receptor 3)): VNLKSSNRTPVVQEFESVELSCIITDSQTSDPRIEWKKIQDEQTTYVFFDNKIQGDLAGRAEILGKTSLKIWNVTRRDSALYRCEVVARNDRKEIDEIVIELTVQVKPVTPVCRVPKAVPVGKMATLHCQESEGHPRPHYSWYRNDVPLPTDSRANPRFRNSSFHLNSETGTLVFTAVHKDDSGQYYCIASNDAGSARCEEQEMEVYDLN

T2: biotinylated soluble JAM-B–EGFP fusion protein (UniProt P57087)
T2 sequence (chain, biotin on the Avitag (BirA)): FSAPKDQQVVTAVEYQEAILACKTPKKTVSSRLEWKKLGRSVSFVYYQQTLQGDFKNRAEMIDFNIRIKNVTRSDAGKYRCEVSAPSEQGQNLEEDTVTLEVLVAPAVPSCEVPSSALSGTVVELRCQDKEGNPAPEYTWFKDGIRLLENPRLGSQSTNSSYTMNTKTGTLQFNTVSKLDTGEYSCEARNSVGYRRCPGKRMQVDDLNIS

T3: biotinylated soluble JAM-C–EGFP fusion protein (UniProt Q9BX67)
T3 sequence (chain, biotin on the Avitag (BirA)): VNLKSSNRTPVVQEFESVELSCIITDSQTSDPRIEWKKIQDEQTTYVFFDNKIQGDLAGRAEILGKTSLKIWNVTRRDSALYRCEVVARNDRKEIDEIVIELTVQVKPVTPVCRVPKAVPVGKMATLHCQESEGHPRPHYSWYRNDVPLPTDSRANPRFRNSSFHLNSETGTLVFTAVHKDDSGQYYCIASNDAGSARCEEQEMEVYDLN

T4: JAM-B extracellular region fused to EGFP, GPI-anchored on CHO cells (UniProt P57087)
T4 sequence (chain, GPI anchor at the C-terminus (GPI signal of TRAIL receptor 3)): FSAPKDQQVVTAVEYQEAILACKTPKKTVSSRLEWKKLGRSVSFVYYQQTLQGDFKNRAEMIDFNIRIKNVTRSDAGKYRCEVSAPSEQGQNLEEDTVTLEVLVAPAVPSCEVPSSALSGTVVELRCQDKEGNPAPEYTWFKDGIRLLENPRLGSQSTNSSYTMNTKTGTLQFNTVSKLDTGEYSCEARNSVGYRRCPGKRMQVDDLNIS


Assays:
[1] = target: T1, JAM-C extracellular region fused to EGFP, GPI-anchored on CHO cells; experiment: flow cytometry on cells; cell-to-cell binding: CHO cells expressing each adhesion molecule labelled with DiI or DiD, mixed 1:1, pelleted, on ice 1 h; doublets of one cell of each type detected by dual fluorescence; Ca2+- and Mg2+-free media
[2] = target: T2, biotinylated soluble JAM-B–EGFP fusion protein; experiment: SPR; Biacore X; biotin-JAM-B-EGFP or biotin-JAM-C-EGFP (8 ug/ml) immobilised on streptavidin chip; analyte JAM precomplexed with anti-GFP Ab (1:10 molar ratio, 1 h room temperature), injected 12 min, buffer 6 min; PBS with 0.005% Tween 20, pH 7.0; regeneration with 100 mM HCl
[3] = target: T3, biotinylated soluble JAM-C–EGFP fusion protein; experiment: as above
[4] = target: T1, JAM-C extracellular region fused to EGFP, GPI-anchored on CHO cells; experiment: flow cytometry on cells; protein-to-cell binding: wild-type or transfected CHO cells with 0.8 ug/ml biotinylated protein (legend: 1 ug/ml) for 1 h on ice, streptavidin-APC, FACSCalibur
[5] = target: T4, JAM-B extracellular region fused to EGFP, GPI-anchored on CHO cells; experiment: as above

binding [1]	binding [2]	binding [3]	binding [4]	binding [5]	Binder
binds					JAM-B extracellular region fused to EGFP, GPI-anchored on CHO cells (receptor, UniProt P57087 29-238, GPI anchor at the C-terminus (GPI signal of TRAIL receptor 3)) FSAPKDQQVVTAVEYQEAILACKTPKKTVSSRLEWKKLGRSVSFVYYQQTLQGDFKNRAEMIDFNIRIKNVTRSDAGKYRCEVSAPSEQGQNLEEDTVTLEVLVAPAVPSCEVPSSALSGTVVELRCQDKEGNPAPEYTWFKDGIRLLENPRLGSQSTNSSYTMNTKTGTLQFNTVSKLDTGEYSCEARNSVGYRRCPGKRMQVDDLNIS
	no binding	binds	binds		biotinylated soluble JAM-B–EGFP fusion protein (domain or fragment, UniProt P57087 29-238, biotin on the Avitag (BirA)) FSAPKDQQVVTAVEYQEAILACKTPKKTVSSRLEWKKLGRSVSFVYYQQTLQGDFKNRAEMIDFNIRIKNVTRSDAGKYRCEVSAPSEQGQNLEEDTVTLEVLVAPAVPSCEVPSSALSGTVVELRCQDKEGNPAPEYTWFKDGIRLLENPRLGSQSTNSSYTMNTKTGTLQFNTVSKLDTGEYSCEARNSVGYRRCPGKRMQVDDLNIS
	binds	no binding		binds	biotinylated soluble JAM-C–EGFP fusion protein (domain or fragment, UniProt Q9BX67 32-241, biotin on the Avitag (BirA)) VNLKSSNRTPVVQEFESVELSCIITDSQTSDPRIEWKKIQDEQTTYVFFDNKIQGDLAGRAEILGKTSLKIWNVTRRDSALYRCEVVARNDRKEIDEIVIELTVQVKPVTPVCRVPKAVPVGKMATLHCQESEGHPRPHYSWYRNDVPLPTDSRANPRFRNSSFHLNSETGTLVFTAVHKDDSGQYYCIASNDAGSARCEEQEMEVYDLN
